Patent publication US20240182583A1, “COMBINATION OF ANTI-GALECTIN-9 ANTIBODIES AND CHEMOTHERAPEUTICS FOR USE IN CANCER THERAPY” (PURETECH LYT, INC., priority 2021, published 2024)

What was measured:
[1] = Nonclinical studies conducted to-date (toxicity); format: in vivo; details: doses ˜500-fold above those intended for human administration
[2] = Non-GLP single-dose range-finding intravenous toxicity study in rats; format: in vivo, Sprague Dawley rats
[3] = Non-GLP single-dose range-finding intravenous infusion toxicity study in cynomolgus monkeys; format: in vivo
Excerpt: The animals were placed in sling restraints during dosing.
Bone marrow smears were collected and preserved.
Formalin was infused into the lung via the trachea.
Paired organs were weighed together.

[4] = Once weekly intravenous toxicity and toxicokinetic study in rats; format: in vivo
Description: The objective of this study was to evaluate potential toxicity of G9.2-17, an IgG4 human monoclonal antibody directed against galectin-9 at different doses, when administered by intravenous infusion to Sprague Dawley Rats once weekly for 4 consecutive weeks followed by a 3-week post dose recovery period. In addition, the toxicokinetic characteristics of G9.2-17 were determined.
One hundred eighty-six animals (Sprague Dawley rats) were assigned to treatment groups randomly by body weight. Control Article/Vehicle, Formulation Buffer for Test Article, and test article, G9.2-17, were administered via a single IV injection in a tail vein at dose levels of 0, 100, and 300 mg/kg once on Days 1, 8, 15, 22, and 29. Test article was administered at dose levels of 100 and 300 mg/kg once on Day 1 to animals assigned to the SSD subgroup.
Clinical observations were performed once daily prior to room cleaning in the morning, beginning on the second day of acclimation. A mortality check was conducted twice daily to assess general animal health and wellness. Food consumption was estimated by weighing the supplied and remaining amount of food in containers once weekly. The average gram (g)/animal/day was calculated from the weekly food consumption. Body weights were taken prior to randomization, on Day −1, then once weekly throughout the study, and on the day of each necropsy. Functional Observation Battery (FOB) observations were recorded for SSB animals approximately 24 hours post dose administrations on Days 1, 35 and 49. Urine was collected overnight using metabolic cages. Samples were obtained on Days 36 and 50.
Animals were fasted overnight prior to each series of collections that included specimens for serum chemistry. In these instances, associated clinical pathology evaluations were from fasted animals. Blood was collected from a jugular vein of restrained, conscious animals or from the vena cava of anesthetized animals at termination.
Parameters assessed during the In-life examinations of the study included clinical observations, food consumption, body weights, functional observational battery. Blood samples were collected at selected time points for clinical pathology (hematology, coagulation, and serum chemistry) analyses. Urine samples were collected for urinalysis. Blood samples were also collected at selected time points for toxicokinetic (TK), immunogenicity (e.g., anti-drug antibody or ADA), and cytokine analyses. Animals were necropsied on Days 36 and 50. At each necropsy, gross observations and organ weights were recorded, and tissues were collected for microscopic examination.

[5] = Once weekly 5-week intravenous infusion toxicity and toxicokinetic study in cynomolgus monkeys
[6] = tested on: M2 macrophages; test: Inhibition of polarization and repolarization of M2 macrophages (TGF-beta1, IL-10 secretion); format: cell-based, human
Excerpt: Whole blood from three healthy human donors was used to isolate CD14+ monocytes. The monocytes were allowed to differentiate to macrophages in X-VIVO-15 media (Lonza) in a 10 cm tissue culture dish for 7 days. The differentiated macrophages were either used directly for assessing inhibition of polarization, or they were cryopreserved and used at a later time for repolarization assays. Prior to use in an assay, the M0 macrophages were phenotyped.
Two different polarization cocktails were used to evaluate macrophage polarization: one with a mixture of IL-4 and IL-13, and a second containing only gal-9. The effect of G9.2-17 on M2 polarization was tested via its direct addition to one of these cocktails, and incubation with macrophages for 48 hours. The effect of G9.2-17 on repolarization of M2 macrophages was tested via addition to the M2-polarized macrophages.
The state of polarization was identified by the measurement of secretion of either IL-10 (repolarization) or TGF-beta1 (inhibition of polarization and repolarization). These factors were quantified in cell culture supernatants using CytoMetric Bead Arrays following the manufacturer's protocol.

[7] = either sex, any dose level, any interval
[8] = once weekly for a total of 5 doses
[9] = either sex, any dose level, any timepoint
[10] = all donors, vs untreated and IgG4 isotype control, both types of polarization cocktails

B1: G9.2-17 (IgG4): fully human IgG4 monoclonal antibody (mAb) targeting galectin-9; heavy chain SEQ ID NO: 19, light chain SEQ ID NO: 15 (antibody)
heavy: EVQLVESGGGLVQPGGSLRLSCAASGFTVSSSSIHWVRQAPGKGLEWVAYISSSSGYTYYADSVKGRFTISADTSKNTAYLQMNSLRAEDTAVYYCARYWSYPSWWPYRGMDYWGQGTLVTVSSASTKGPSVFPLAPCSRSTSESTAALGCLVKDYFPEPVTVSWNSGALTSGVHTFPAVLQSSGLYSLSSVVTVPSSSLGTKTYTCNVDHKPSNTKVDKRV[sequence of human IgG4 Fc with S228P L445P (EU numbers) not given]
light: DIQMTQSPSSLSASVGDRVTITCRASQSVSSAVAWYQQKPGKAPKLLIYSASSLYSGVPSRFSGSRSGTDFTLTISSLQPEDFATYYCQQSSTDPITFGQGTKVEIKRTVAAPSVFIFPPSDEQLKSGTASVVCLLNNFYPREAKVQWKVDNALQSGNSQESVTEQDSKDSTYSLSSTLTLSKADYEKHKVYACEVTHQGLSSPVTKSFNRGEC
toxicities in nonclinical studies [1]: no significant toxicities
findings in clinical observations, body weights, food consumption, clinical pathology or anatomic pathology ([2]; single IV 10, 30, 70 mg/kg): No G9.2-17 IgG4-related findings
mortality ([2]; single IV bolus 10, 30, 70 mg/kg, necropsies Days 8 and 22): All animals survived to the scheduled necropsies
tolerability ([2]; single intravenous administration of 10, 30, and 70 mg/kg): tolerated with no adverse findings
NOEL ([2]; single intravenous dose): 70 mg/kg
macroscopic findings, organ weight changes, microscopic findings ([2]; terminal and recovery necropsy animals): no test article-related macroscopic findings, organ weight changes, or microscopic findings
clinical or veterinary observations ([3]; cynomolgus monkey, in vivo): No test article-related clinical or veterinary observations
gross necropsy observations ([3]; cynomolgus monkey, in vivo): no findings that were considered to be test article related
organ weight alterations ([3]; cynomolgus monkey, in vivo): no organ weight alterations that were considered to be test article-related
effects on clinical chemistry endpoints [3, 7]: no G9.2-17 IgG4-related effects
effects on coagulation times or fibrinogen concentrations [3, 7]: no G9.2-17 IgG4-related effects
effects on cytokine endpoints [3, 7]: no G9.2-17 IgG4-related effects
effects on hematology endpoints [3, 7]: no G9.2-17 IgG4-related effects
mortality ([3]; scheduled necropsy Day 22): All animals survived
findings in clinical observations, body weights, food consumption, clinical pathology, immunophenotyping, galectin-9 expression on leukocyte subsets, soluble galectin-9 or anatomic pathology ([3]; single 30-minute IV infusion 30, 100, 200 mg/kg): No G9.2-17 IgG4-related findings
No-observed-Adverse-Effect-Level (NOAEL) ([3]; single IV infusion, highest dose level evaluated): 200 mg/kg
tolerability ([3]; single intravenous infusion of 30, 100, and 200 mg/kg): tolerated with no adverse findings
effects on body weight ([3]; treatment or recovery period): No test article-related effects
clinical observations ([4]; IV 100 and 300 mg/kg on Days 1, 8, 15, 22, 29): no G9.2-17-related clinical observations
changes in clinical observations, food consumption, body weights, FOB parameters, clinical pathology, cytokine, gross observations, or organ weights [4, 8]: no G9.2-17-related changes
tolerability [4, 8]: generally well tolerated
absolute or relative organ weights ([4]; rat, in vivo): no G9.2-17-related changes
clinical pathology parameters ([4]; rat, in vivo): no G9.2-17-related changes
food consumption, body weights or body weight gain ([4]; rat, in vivo): no G9.2-17-related changes
gross observations ([4]; rat, in vivo): no G9.2-17-related gross observations
histologic findings ([4]; rat, in vivo): no G9.2-17-related histologic findings
serum concentrations of IL-2, IL-4, IFN-γ, IL-5, IL-6, IL-10, and/or TNF-α, MCP-1 and MIP-1b ([4]; rat, in vivo): no G9.2-17-related changed
mortality ([5]; 100 and 300 mg/kg/dose once weekly x5, necropsy Day 36, recovery Day 50): All animals survived
effects on cytokines ([5]; any dose level or timepoint): No definitive G9.2-17-related effects
G9.2-17 in serum samples after dose administration ([5]; bioanalysis, LLOQ <0.04 ug/mL): quantifiable in all cynomolgus monkey samples from all G9.2-17-dosed animals
microscopic observations ([5]; cynomolgus monkey, in vivo): no definitive test article-related microscopic observations
Peripheral Blood Leukocyte Analysis (PBLA) endpoints [5, 9]: no G9.2-17-related effects
clinical chemistry parameters [5, 9]: no G9.2-17-related effects
coagulation parameters [5, 9]: no G9.2-17-related effects
hematology parameters [5, 9]: no G9.2-17-related effects
urinalysis parameters ([5]; either sex, any dose level, at the 13-week interim): No G9.2-17-related alterations
macroscopic observations ([5]; main study or recovery animals): no definitive test article-related macroscopic observations
organ weight changes ([5]; main study or recovery animals): no test article-related organ weight changes
tolerability ([5]; once weekly IV infusion of 100 and 300 mg/kg for 5-weeks): tolerated with no adverse findings
Functional Observational Battery ([5]; treatment or recovery periods): No test article-related FOB observations
blood pressure values ([5]; treatment or recovery periods): No test article-related effects
body weight and body weight gain ([5]; treatment or recovery periods): No test article-related effects
clinical and veterinary observations ([5]; treatment or recovery periods): No test article-related clinical or veterinary observations
electrocardiographic evaluations ([5]; treatment or recovery periods): No test article-related effects
ophthalmology examinations ([5]; treatment or recovery periods): No test article-related effects
respiratory rate values ([5]; treatment or recovery periods): No test article-related effects
secreted IL-10 levels [6, 10]: reduction
secreted TGF-b1 levels [6, 10]: reduction
inhibition of IL-10 ([6]; concentration of 20 μg/ml): potently inhibit
inhibition of TGF-beta1 ([6]; concentration of 20 μg/ml): potently inhibit
TGF-beta1 secretion ([6]; polarization of fresh monocyte-derived macrophages, vs isotype matched control or untreated cells, all donors): decrease in TGF-beta1 secretion
TGF-β1 secretion ([6]; previously frozen macrophages, 20 ng/mL IL-4/IL-13 polarization cocktail): abolished the IL-4/IL-13-dependent increase of TGF-β1 secretion
